# The list shows a part of the results.
# Columns and labels:
# HSkMC = human skeletal muscle cells; assay: cytotoxicity call (relative viability < 0.9); conditions: 10 µM
# HepG2 = assay: cytotoxicity call (relative viability < 0.9); conditions: 10 µM
# S. aureus RN4220 = assay: growth inhibition call (relative growth <= 0.2); conditions: 50 µM
Compound,cytotoxicity call (HSkMC),cytotoxicity call (HepG2),growth inhibition call (S. aureus RN4220)
C=C1C(CO)C(O)CC1n1cnc2c(=O)[nH]c(N)nc21.O (stereo not given),inactive,active,inactive
C[C@H]1CCCCO[C@@H](CN(C)C(=O)c2ccccc2)[C@@H](C)CN([C@@H](C)CO)C(=O)c2cc(NC(=O)NC3CCCCC3)ccc2O1,inactive,inactive,inactive
Cc1cccn2c(CN)cnc12,inactive,inactive,inactive
Cc1noc(C)c1S(=O)(=O)Nc1ccc2c(c1)C(=O)N([C@H](C)CO)C[C@H](C)[C@@H](CN(C)S(=O)(=O)c1c(C)noc1C)O2,inactive,inactive,inactive
CC(C)OC(=O)C(C)(C)Oc1ccc(C(=O)c2ccc(Cl)cc2)cc1,inactive,inactive,inactive
COc1ccc([Si](C)(C)[C@@H]2[C@@H](CC(=O)N3Cc4ccccc4C[C@H]3CO)O[C@]3(C(=O)N(Cc4ccc(N5CCC5=O)cc4)c4ccccc43)[C@H]2C)cc1,inactive,inactive,inactive
COc1ccnc(C#N)c1,inactive,inactive,inactive
O=C(CCCCCNC(=O)OCc1ccc(CO[C@H]2C[C@@H](c3ccc4c(c3)OCO4)C=C(C(=O)N3CCOCC3)O2)cc1)NO,inactive,inactive,inactive
C[C@H]1CCCCO[C@@H](CN(C)C(=O)NC2CCCCC2)[C@@H](C)CN([C@@H](C)CO)C(=O)c2cc(NC(=O)c3ccncc3)ccc2O1,inactive,inactive,inactive
CS(=O)(=O)N1CCN2C[C@H](C(=O)O)CN(Cc3ccoc3)C[C@@H]2C1,inactive,inactive,inactive
Cc1ccc(S(=O)(=O)N(C)C[C@H]2Oc3ccc(NC(=O)Nc4cccc5ccccc45)cc3CC(=O)N([C@H](C)CO)C[C@@H]2C)cc1,inactive,inactive,inactive
COCC#Cc1cnc2c(c1)C(=O)N([C@H](C)CO)C[C@H](C)[C@H](CN(C)S(=O)(=O)c1ccccc1)O2,inactive,inactive,inactive
Cc1noc(C)c1NC(=O)Nc1ccc2c(c1)C(=O)N([C@@H](C)CO)C[C@H](C)[C@H](CN(C)Cc1ccccc1)OCCCC[C@H](C)O2,inactive,inactive,inactive
Cc1noc(C)c1NC(=O)Nc1ccc2c(c1)C(=O)N([C@@H](C)CO)C[C@@H](C)[C@H](CN(C)S(=O)(=O)c1ccc(F)cc1)OCCCC[C@H](C)O2,inactive,inactive,inactive
C[C@@H]1CN([C@@H](C)CO)C(=O)c2cc(NC(=O)Cn3cnnn3)ccc2O[C@@H]1CN(C)C(=O)Nc1ccc2c(c1)OCO2,inactive,inactive,inactive
